Results are given in words; binding and its absence hold for the method and conditions named. Binding seen in cells or lysates may run through a third protein. Where a sequence is shown, tags or fusion partners need not be part of it.
Experiments:
Assay in all cases: co-IP; V5H6-tagged FRQ (wild type or mutant) pulled down with V5 agarose from Neurospora lysate (cultures in the light, 25 °C); 50 mM Hepes pH 7.4, 137 mM NaCl, 10% glycerol, 0.4% NP-40; 4 °C, 2 h; Western blot with FRQ, FRH, WC-1 and WC-2 antibodies
[1] = molecular target: T1, FRQ 1–558, V5H6-tagged (Neurospora crassa) (UniProt P19970)
T1 sequence: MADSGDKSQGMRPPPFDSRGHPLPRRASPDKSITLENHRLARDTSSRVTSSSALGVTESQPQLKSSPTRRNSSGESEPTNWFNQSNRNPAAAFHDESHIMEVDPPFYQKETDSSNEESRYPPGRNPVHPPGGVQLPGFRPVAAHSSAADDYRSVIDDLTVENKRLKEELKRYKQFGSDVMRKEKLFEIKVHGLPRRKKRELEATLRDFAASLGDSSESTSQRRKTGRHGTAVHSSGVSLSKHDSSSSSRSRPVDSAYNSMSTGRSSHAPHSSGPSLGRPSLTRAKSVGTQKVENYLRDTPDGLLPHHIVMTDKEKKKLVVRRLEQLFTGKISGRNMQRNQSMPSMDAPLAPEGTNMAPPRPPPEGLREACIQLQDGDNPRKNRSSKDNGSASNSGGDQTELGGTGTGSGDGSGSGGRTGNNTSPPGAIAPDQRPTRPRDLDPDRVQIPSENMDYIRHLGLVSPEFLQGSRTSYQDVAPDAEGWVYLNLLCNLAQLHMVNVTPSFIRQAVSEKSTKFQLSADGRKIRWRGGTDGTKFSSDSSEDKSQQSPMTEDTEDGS

[2] = molecular target: T2, FRQ Δ200–249, V5H6-tagged (Neurospora crassa) (UniProt P19970)
T2 sequence: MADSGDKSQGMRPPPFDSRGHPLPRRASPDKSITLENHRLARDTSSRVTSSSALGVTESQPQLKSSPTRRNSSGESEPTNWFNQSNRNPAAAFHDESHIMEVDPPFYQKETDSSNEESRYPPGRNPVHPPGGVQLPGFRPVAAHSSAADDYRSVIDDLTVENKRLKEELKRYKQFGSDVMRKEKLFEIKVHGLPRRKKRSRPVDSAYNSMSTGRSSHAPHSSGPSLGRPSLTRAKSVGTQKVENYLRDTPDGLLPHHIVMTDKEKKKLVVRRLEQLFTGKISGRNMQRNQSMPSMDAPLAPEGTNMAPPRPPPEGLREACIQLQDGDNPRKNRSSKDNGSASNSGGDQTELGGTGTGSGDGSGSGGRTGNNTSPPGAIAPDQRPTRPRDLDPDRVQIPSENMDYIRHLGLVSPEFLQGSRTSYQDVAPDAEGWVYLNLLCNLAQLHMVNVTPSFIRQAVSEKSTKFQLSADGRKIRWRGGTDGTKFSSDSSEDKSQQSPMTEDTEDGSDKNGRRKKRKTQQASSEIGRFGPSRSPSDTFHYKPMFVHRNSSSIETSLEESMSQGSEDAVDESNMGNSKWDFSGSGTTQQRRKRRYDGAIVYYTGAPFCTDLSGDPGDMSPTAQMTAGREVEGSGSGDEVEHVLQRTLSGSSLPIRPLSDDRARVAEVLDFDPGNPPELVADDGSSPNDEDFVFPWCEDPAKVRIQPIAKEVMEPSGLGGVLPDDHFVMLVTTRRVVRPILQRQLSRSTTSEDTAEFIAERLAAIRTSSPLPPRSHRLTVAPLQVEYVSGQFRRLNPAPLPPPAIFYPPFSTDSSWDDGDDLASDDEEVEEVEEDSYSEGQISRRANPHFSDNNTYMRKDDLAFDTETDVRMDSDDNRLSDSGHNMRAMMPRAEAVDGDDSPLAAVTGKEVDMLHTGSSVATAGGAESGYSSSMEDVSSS

[3] = molecular target: T3, FRQ Δ482–510, V5H6-tagged (Neurospora crassa) (UniProt P19970)
T3 sequence: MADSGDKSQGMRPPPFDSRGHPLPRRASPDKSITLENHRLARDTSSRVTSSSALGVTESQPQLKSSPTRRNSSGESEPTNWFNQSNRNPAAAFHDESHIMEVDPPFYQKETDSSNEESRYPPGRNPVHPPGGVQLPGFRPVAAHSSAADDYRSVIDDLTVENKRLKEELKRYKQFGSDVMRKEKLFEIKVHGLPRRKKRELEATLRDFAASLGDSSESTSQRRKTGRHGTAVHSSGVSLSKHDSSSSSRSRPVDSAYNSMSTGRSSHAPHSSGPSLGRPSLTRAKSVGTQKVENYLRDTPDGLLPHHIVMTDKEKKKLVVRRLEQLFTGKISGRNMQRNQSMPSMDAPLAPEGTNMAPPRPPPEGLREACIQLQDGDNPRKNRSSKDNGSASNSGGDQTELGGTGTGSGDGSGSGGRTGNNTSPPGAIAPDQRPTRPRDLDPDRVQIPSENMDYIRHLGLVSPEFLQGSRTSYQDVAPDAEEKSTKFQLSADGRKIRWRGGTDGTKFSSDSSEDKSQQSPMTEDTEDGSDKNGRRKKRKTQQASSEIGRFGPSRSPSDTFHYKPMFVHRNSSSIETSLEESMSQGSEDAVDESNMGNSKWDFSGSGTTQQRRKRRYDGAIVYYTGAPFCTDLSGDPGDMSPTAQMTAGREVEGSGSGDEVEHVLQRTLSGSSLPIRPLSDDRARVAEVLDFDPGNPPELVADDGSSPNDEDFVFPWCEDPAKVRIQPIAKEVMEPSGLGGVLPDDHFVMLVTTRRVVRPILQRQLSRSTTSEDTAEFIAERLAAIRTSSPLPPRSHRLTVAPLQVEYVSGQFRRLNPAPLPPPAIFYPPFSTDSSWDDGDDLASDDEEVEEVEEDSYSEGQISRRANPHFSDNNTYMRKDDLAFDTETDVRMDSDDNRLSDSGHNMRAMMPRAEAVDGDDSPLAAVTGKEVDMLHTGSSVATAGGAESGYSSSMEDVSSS

binding [1]: no binding
binding [2]: no binding
binding [3]: no binding
B1: White Collar-2 (WC-2) (protein, UniProt P78714 1-530)
chain: MSHGQPPPGSSMYGFGAMGMGSGMGSGMGSGMGTGMGTGMGTGMSASQMTSDPQDMMSLLDTSVFPGFDGMSMSLDVGDSMSNPFTPVSVPPPLPAGNAGPSHVGVCGGHGAPDQLFSPDDLIATSMSSAGPMIATPTTTTSGPSGGPSSGGGSTLTEFTKRRNWPAKVVEELQDWEHILDANGRIKHVSPSVEPLTGYKPPEIIDLFLRDLIHPDDVGVFTAELNEAIATGSQLRLFYRFRKKDGNWTIFETVGHAHIAAAKFAPNPQNQSPFCQAVFMMARPYPTKNAGLLDSFLEHKIENERLKRRIAELRREEQEEQEESHRTWRMSQEGRSDVTPSDDTATQMGMTPFYIPMNAQADVMMPPPSQPASSLNIALTRENLEGIAGSRPDSIREKMLRYEGNHADTIEMLTGLKYQEGERSHGITTGNASPTLIKGDAGIAIPLDRDPRTGEKKKKIKVAEEYVCTDCGTLDSPEWRKGPSGPKTLCNACGLRWAKKEKKKNANNNNNGGGIGGHNDIHTPMGDHMG

From publication PMC10320511
